# Measurements as given in patent US20100204156A1, “USE OF THYMOPENTIN AS A THERAPEUTIC AGENT” (priority 2007, published 2010).
# Residues, ends and D or L forms follow the SMILES beside them.
# Test system: RAW 264.7 (Mouse leukaemic monocyte macrophage cell line) cells
# Test: Phagocytosis assay (Fluorescein-labeled Escherichia coli, flow cytometry)
# Format: cell-based
# Conditions: RAW 264.7 cells, test peptide 10 micrograms per ml
structure (smiles),measurement,value
"CC(C)[C@H](NC(=O)[C@H](CC(=O)O)NC(=O)[C@H](CCCCN)NC(=O)[C@@H](N)CCCN=C(N)N)C(=O)N[C@@H](Cc1ccc(O)cc1)C(=O)O [Thymopentin, Arg-Lys-Asp-Val-Tyr-OH] (H-RKDVY-OH)",% of control phagocytosis,102.9%
